In article PMC7351759, “Nuclear moonlighting of cytosolic glyceraldehyde-3-phosphate dehydrogenase regulates Arabidopsis response to heat stress” (Nature Communications, 2020):
Results are given in words; binding and its absence hold for the method and conditions named. In cells and extracts the contact can be indirect. Some results given as binding are weak or reduced against the parent protein; the word gives no strength. Tags and fused reporters may be left off the sequences shown.

By UniProt entry, the sequences of proteins in these tests, tags left out.
UniProt P25858: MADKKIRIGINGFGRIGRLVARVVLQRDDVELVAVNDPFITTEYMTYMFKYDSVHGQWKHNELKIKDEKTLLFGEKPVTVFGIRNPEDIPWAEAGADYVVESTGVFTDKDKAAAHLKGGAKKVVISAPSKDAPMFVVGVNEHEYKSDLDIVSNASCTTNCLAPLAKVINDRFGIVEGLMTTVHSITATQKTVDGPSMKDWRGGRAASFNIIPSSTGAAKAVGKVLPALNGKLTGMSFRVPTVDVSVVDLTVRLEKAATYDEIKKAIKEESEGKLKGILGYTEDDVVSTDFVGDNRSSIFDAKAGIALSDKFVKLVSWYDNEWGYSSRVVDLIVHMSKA
UniProt Q9FX54: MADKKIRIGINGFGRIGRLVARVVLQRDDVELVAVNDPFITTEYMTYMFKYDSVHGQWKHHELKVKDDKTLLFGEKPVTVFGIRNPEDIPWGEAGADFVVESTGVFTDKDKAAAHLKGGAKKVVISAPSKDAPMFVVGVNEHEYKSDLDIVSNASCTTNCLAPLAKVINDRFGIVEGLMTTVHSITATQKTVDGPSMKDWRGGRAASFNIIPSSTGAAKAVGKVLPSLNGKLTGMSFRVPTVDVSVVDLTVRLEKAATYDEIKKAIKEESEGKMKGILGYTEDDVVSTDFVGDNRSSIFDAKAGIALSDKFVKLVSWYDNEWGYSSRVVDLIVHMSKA

What was measured:
Test in all cases: split reporter; BiFC with YFP^N and YFP^C fusions co-expressed transiently in Nicotiana benthamiana leaves; confocal microscopy
[1] = molecular target: GAPC1-YFP^N (Arabidopsis) (UniProt P25858)
[2] = molecular target: T1, GPA1-YFP^N (Gα subunit of heterotrimeric protein) (UniProt P18064)
T1 sequence: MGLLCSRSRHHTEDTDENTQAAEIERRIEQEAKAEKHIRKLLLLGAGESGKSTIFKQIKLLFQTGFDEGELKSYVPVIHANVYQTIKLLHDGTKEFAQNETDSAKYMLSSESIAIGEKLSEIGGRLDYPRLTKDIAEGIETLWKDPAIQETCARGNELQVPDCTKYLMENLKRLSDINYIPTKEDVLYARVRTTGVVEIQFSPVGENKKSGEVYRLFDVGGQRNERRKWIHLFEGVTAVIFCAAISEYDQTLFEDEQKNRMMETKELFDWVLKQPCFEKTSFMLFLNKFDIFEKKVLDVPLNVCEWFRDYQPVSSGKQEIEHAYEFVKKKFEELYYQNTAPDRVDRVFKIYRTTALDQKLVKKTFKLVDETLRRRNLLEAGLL

[3] = molecular target: GAPC2-YFP^N (Arabidopsis) (UniProt Q9FX54)
[4] = molecular target: T2, PLDα1-YFP^C (phospholipase Dα1) (UniProt Q38882)
T2 sequence: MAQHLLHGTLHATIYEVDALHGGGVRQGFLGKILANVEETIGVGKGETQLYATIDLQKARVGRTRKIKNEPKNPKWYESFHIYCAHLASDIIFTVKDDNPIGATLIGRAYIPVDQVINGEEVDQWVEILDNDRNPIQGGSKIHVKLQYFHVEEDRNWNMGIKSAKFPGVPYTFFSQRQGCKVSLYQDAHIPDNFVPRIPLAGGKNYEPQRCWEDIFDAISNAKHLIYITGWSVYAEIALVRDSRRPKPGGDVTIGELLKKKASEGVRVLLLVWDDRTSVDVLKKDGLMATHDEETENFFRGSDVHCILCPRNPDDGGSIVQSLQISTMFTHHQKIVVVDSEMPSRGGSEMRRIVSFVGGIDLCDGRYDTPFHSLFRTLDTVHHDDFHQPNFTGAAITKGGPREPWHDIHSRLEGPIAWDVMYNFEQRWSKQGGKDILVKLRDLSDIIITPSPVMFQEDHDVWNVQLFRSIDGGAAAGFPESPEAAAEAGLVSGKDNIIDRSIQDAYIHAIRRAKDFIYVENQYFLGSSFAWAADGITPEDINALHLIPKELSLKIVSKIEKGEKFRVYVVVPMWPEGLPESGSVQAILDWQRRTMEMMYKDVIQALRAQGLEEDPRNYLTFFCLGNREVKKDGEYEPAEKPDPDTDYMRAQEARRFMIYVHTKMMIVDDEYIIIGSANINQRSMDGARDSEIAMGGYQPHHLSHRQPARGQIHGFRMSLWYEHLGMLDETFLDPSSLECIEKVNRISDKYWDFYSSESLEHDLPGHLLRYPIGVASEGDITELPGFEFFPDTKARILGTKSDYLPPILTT

B1: NF-YC10-YFP^C (protein, UniProt Q58CM8 1-195)
chain: MRRPKSSHVRMEPVAPRSHNTMPMLDQFRSNHPETSKIEGVSSLDTALKVFWNNQREQLGNFAGQTHLPLSRVRKILKSDPEVKKISCDVPALFSKACEYFILEVTLRAWMHTQSCTRETIRRCDIFQAVKNSGTYDFLIDRVPFGPHCVTHQGVQPPAEMILPDMNVPIDMDQIEEENMMEERSVGFDLNCDLQ
In the case of B1, the binding [1] is reported as “binds”, the binding [2] is reported as “no binding” and the binding [3] is reported as “binds”.

B2: GPA1-YFP^N (Gα subunit of heterotrimeric protein) (protein, UniProt P18064 1-383)
chain: T1 sequence
For B2, the binding [4] was “binds”.

B3: PLDα1-YFP^C (phospholipase Dα1) (enzyme, UniProt Q38882 1-810)
chain: T2 sequence
For B3, the binding [1] was “no binding” and the binding [3] was “no binding”.
